Test results from the supplement of paper PMC10338343.
± gives the standard deviation. The full ranking holds about 6,600 sequences; the median of “pre-steady-state target cleavage rate” is about 0.07, and the highest 2% start at about 0.72. This is a selection; strong and weak results do not stand in their true shares.

These sequences were tested on MIWI (PIWIL1) piRISC loaded with Kctd7 piRNA (30 nt) (assay: pre-steady-state target cleavage rate (min^-1); MIWI and MILI are mouse PIWI proteins and EfPiwi is from a freshwater sponge; tags in brackets are library labels; higher = faster piRNA-guided slicing of the target). Conditions: guide: Kctd7 piRNA 5'p-UGUUAAUCUCUCAGAGAAGGUGACAGUGAU; auxiliary factor: 500 nM mouse GTSF1.
Procedure, shortened: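 A burst-and-steady-state fit was used to obtain the pre-steady-state cleavage rate. The input data were sequencing reads of uncleaved targets, normalised to depth and to weakly complementary targets, from a […] transcribed, DNA-blocked target RNA library mixed with 1 nM active affinity-purified piRISC holding one synthetic guide, with or without 500 nM GTSF1 partner protein, in HEPES–potassium acetate buffer at 33 °C for 0–8 or 0–960 min. Three trials were pooled and k3 was capped at 0.0001 min^-1.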
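Also: 1 nM active piRISC with 0.1 nM target library at 33 °C single turnover.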

Sequence | pre-steady-state target cleavage rate
UACACUGAUCACCUUCUCUGAGAGAUUAACA | 0.638 ± 0.05
UAGUGACACACCUUCUCUGAGAGAUUAAGCA | 0.296 ± 0.049
UAGUGAGUCACCAUCUCUGAGAGAAUAACA | 0.213 ± 0.03
UAGACUGUCUCCUUCUCAGAGAGAUUAACA | 0.278 ± 0.021
UAGAGACUCACCUUCUCUGAGAGAUUAAGA | 0.187 ± 0.024
UAGUGUGUCACGUUCUCUGAGAGAUUAACA | 0.561 ± 0.028
UAGUGACAGUCCUUCUCUUAGAGAUUAACA | 0.0123 ± 0.0049
UAGUGACACAGCUUCACUGAGAGAUUAACA | 0.0887 ± 0.011
UUCACUGUCACCAUCUCUGAGUGAUUAACA | 0.0308 ± 0.0054
UAGUGACACACCUUCUGUGAGAGAUUAAGA | 0.0525 ± 0.012
UAGUGACAGUCUUCUCUGAGAGAUUAACA | 0.0394 ± 0.0047
AUCACUGUCACCUUCUCUCUGAGAUUAACA | 0.0402 ± 0.0095
UAGUGAGUCACCUACUCUGUGAGAUUAACA | 0.161 ± 0.013
AUGAGUGUCACCUUCUCUGAGAGAUUAACA | 0.706 ± 0.032
UAGUGUGUCACCUUCUCUGAGAGUUAAACA | 0.208 ± 0.043
UUCACUGUCACCAUCUCUGAGAGUUUAACA | 0.398 ± 0.06
UAGUGACAGUGGAAGAGUCAGUGAUUAACA | < 0.0001
UAGUGACAGUCCUUCUCUGAGAGAUUUAACA | 0.018 ± 0.0034
UAGUGUGUCACGUUCUCUGAGAGUUUAACA | 0.165 ± 0.022
UAGUGAGUCACCUACUCUGACAGAUUAACA | 0.221 ± 0.028
UAGUCUGUCACCUUCUCGAGAGAUUAACA | 0.0918 ± 0.014
UACAGAGUCACCUUCUCUGAGAGAUUAACA | 0.476 ± 0.026
UAGUGUGUCUCCUUCUCUGACAGAUUAACA | 0.386 ± 0.03
AUCACUGUGACCUUCUCAGAGAGAUUAACA | 0.236 ± 0.012

Sequence | pre-steady-state target cleavage rate
UAGACUGACACCUACUCUGAGAGAUUAACA | 0.521 ± 0.04
UAGUGUGUACACCUUCUCUGAGAGAUUAACA | 0.569 ± 0.038
UAGUGACUCACCUUCUCUGAGAGAUUAGCA | 0.293 ± 0.044
UAGUGACUCACCUACUCUGAGAGAAUAACA | 0.0219 ± 0.0063
UAGUGACAGACCUACUCUGAGAGUUUAACA | 0.011 ± 0.0036
AUCACUGUCACCUUCUCUGACUGAUUAAGA | 0.00363 ± 0.0027
AUCACUGUCACCAACUCUGAGAGAUUAUGA | 0.00999 ± 0.0036
UAGUGUGUCUGCUUCUCUGAGAGAUUAUGA | 0.0055 ± 0.0027
UACACUGUCACCUUCUGUGAGAGAAUAACA | 0.249 ± 0.048
AUCACUCGUCACCUUCUCUGAGAGAUUAACA | 0.747 ± 0.043
UAGUGAGUCACCUUCUCUGAGACUUUAACA | 0.0587 ± 0.013
UAGUGUGUCACCUUCUCUGAGAGAUUACCA | 0.208 ± 0.029
UAGUGACACACCUUCUCUGAGAGAUAAUGA | 0.00749 ± 0.0039
UAGUGACACACCUUCUCUGAGAGUUUUACA | 0.0381 ± 0.015
ACACUGUCACCUUCUCUGAGAGAUUAACA | 0.772 ± 0.044
UAGUGACAGUGCUUCUCUGAGAGAUUACCA | 0.00538 ± 0.0028
UUCACUGUCACGUUCUGUGAGAGAUUAACA | 0.506 ± 0.028
UAGUCUGUCACACUUCUCUGAGAGAUUAACA | 0.51 ± 0.023
AUCACUGUCACCUUCUCUGUCAGAUUUUGA | 0.018 ± 0.0065
UAGUGUGUCACCUUCUCUCAGAGAUUUACA | 0.0502 ± 0.0088
UUGACUGUGACCUUCUCUGAGAGAUUAACA | 0.662 ± 0.04
UUCACUGUCACCUUCUCUGAGAGAUAUAACA | 0.304 ± 0.033
UAGUGAGUCUGGUUCUCUGAGAGAUUAACA | 0.00515 ± 0.0021
UAGUUUGUCACCUUCUCUGAGAGAUUAACA | 0.58 ± 0.024

Sequence | pre-steady-state target cleavage rate
UAGUCUCUCAGCUUCUCUGAGAGAUUAACA | 0.00984 ± 0.0037
UAGACUCAGACCUUCUCUGAGAGAUUAUGA | 0.0101 ± 0.0033
UAGUGACAGACCUUCUCUCAGAGAUUUACA | 0.0078 ± 0.0039
UUCACUCACACCUUCUCUGAGAGAUUUUGA | 0.128 ± 0.03
UAGACUGUCACCUUCUCUGAGUGAUUAACA | 0.0193 ± 0.0028
UAGUGACACACCUUCUCUGACAGAUAAACA | 0.0421 ± 0.012
UAGUGAGUCACCUUGUCUGUGAGAUUAACA | 0.111 ± 0.0097
AUCACUGUCAGCUUCUCUCAGAGAUUAACA | 0.0986 ± 0.0063
UAGUGUGUCAACUUCUCUGAGAGAUUAACA | 0.546 ± 0.025
UACUGUGUCACCUUCUCUGAGAGAUUUUGA | 0.0574 ± 0.0094
UAGUGUGUCACCAUCUCUGAGAGAUUAUCA | 0.198 ± 0.026
UAGUGACAGUGGAAGAGACUGAGAUAAAGA | < 0.0001
UACACUGUCACCUUCUCUUAGAGAUUAACA | 0.345 ± 0.02
AUGUGUGUCACCUUCUCUGAGAGAUUAAGA | 0.295 ± 0.041
UUCACUGUCACCUUCUCUGAGAGAUUUAGA | 0.112 ± 0.024
UAGUGUGUCACCUUGUCUGAGAGAUUUUGA | 0.00982 ± 0.0057
UAGUGUGUCACCUUGCUCUGAGAGAUUAACA | 0.231 ± 0.04
UACACUGUCACCUUCUCUGAGAAGAUUAACA | 0.0272 ± 0.0089
AUCACUGUCACCUUCUCUGAGUCAUUUUGA | 0.0042 ± 0.0032
UAGUGACAGUCGCUUCUCUGAGAGAUUAACA | 0.462 ± 0.029
UACACUGUCACCUUCAGUGAGAGAUUAACA | 0.0638 ± 0.013
UAGUCUGUCACCUUCUCUGAUGAGAUUAACA | 0.00956 ± 0.0041
UACACACUCACCUUCUCUGAGAGAUUAACA | 0.568 ± 0.044
UAGACUGUCUGGUUCUCUGAGAGAUUAUGA | < 0.0001
